Reference: PubChem BioAssay AID504333 (National Center for Advancing Translational Sciences (NCATS), 2011)
Out of some 360,000 compounds screened, about 16,000 (4.4%) were called active. Inconclusive results, whose numbers are uncertain, are shown with a selection of clear calls. Calls come from the whole dose curve; as a rule, active = well fitted inhibition curve with a large enough effect; inconclusive = small, poorly fitted or top-dose-only effect; inactive = no such curve, though single readings can be large or run the other way. Where the call is inconclusive, the potency comes from a doubtful curve fit.

What follows are compounds tested against Bromodomain adjacent to zinc finger domain protein 2B (Homo sapiens) (UniProt Q9UIF8) (assay: qHTS Assay for Inhibitors of BAZ2B). Conditions: AlphaScreen BAZ2B-H3K14Ac peptide displacement; series mostly up to 114 µM.
UniProt Q9UIF8, sequence (Q9UIF8 whole entry, looked up, the tested form may be a part): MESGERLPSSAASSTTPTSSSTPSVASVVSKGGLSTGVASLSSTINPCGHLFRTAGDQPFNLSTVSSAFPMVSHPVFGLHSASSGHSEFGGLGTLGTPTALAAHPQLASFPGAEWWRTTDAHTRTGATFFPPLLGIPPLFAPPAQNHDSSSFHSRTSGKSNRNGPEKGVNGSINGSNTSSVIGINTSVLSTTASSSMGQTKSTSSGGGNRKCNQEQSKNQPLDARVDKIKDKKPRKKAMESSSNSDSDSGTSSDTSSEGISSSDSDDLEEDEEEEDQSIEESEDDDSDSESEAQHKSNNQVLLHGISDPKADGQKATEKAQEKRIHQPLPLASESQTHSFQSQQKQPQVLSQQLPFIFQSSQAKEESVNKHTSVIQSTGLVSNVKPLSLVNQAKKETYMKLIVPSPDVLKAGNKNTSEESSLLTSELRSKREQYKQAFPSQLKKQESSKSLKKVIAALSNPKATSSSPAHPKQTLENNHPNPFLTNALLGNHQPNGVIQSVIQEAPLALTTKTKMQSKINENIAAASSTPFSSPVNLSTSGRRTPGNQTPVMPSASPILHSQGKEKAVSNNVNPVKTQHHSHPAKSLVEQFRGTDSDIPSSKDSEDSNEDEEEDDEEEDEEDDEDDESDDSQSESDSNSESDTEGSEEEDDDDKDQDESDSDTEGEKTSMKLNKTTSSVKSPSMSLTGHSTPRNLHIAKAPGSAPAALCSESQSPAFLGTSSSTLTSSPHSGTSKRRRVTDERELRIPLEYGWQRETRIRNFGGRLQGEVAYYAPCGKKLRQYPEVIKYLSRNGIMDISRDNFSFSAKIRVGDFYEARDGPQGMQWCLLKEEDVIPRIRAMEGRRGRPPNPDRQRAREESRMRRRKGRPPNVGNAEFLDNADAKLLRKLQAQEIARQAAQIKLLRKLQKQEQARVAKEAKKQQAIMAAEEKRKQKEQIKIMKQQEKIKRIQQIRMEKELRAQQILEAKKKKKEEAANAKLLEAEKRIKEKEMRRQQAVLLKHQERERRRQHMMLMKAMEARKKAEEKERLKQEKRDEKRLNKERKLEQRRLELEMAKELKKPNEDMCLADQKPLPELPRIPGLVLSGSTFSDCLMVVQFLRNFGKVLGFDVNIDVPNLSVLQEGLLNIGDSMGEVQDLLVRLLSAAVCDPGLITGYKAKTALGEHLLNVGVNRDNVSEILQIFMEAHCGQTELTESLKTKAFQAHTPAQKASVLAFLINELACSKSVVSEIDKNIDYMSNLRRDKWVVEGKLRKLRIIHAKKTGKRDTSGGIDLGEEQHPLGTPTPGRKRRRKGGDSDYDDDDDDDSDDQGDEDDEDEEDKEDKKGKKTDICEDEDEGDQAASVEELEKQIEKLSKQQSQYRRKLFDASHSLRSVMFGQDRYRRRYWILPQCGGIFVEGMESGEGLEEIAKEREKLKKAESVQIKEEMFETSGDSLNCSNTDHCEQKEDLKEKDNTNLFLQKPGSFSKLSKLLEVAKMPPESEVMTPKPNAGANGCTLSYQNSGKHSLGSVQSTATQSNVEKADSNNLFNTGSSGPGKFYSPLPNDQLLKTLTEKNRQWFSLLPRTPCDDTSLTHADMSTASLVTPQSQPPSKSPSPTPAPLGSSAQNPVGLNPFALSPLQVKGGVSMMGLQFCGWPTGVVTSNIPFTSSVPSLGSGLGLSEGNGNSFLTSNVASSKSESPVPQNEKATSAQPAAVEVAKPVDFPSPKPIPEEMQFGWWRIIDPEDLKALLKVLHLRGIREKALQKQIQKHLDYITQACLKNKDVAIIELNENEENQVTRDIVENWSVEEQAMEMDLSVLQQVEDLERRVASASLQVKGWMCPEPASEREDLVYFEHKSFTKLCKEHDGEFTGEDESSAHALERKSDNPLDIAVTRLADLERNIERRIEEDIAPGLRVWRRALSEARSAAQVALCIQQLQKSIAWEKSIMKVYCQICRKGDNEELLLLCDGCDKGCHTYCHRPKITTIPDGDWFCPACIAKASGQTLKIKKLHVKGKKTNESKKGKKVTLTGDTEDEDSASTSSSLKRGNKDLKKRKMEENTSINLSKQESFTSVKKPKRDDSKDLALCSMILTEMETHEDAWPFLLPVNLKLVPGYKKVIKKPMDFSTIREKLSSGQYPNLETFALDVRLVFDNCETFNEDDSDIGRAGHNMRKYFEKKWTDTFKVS
Method in brief: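 AlphaScreen luminescence quantifies BAZ2B engagement of H3K14Ac peptide; the protein and biotinylated peptide are both at 50 nM final, buffer PBS pH 7.4 with 0.01% Tween-20, all steps at room temperature.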
Note: nearly all actives have a fitted effect of over 60% in size.
Potency is the fitted concentration of half-maximal effect; tags give direction and shape of the fitted curve.

Which Potency does the source give for `Cc1cc(C)n(C(C[N+](=O)[O-])c2ccc(Cl)cc2)n1` (stereo unspecified) here?
Its Potency is inconclusive: 89.1 µM [inhibitor, single point].

With `CC1=NN(c2cccc(C(=O)O)c2)C(=O)/C1=C\C=C/c1ccccc1` as the compound, how does the Potency read?
Its Potency is inconclusive: 50.1 µM [inhibitor, partial curve].

How did the Potency turn out when `O=C(N/N=C/c1cc([N+](=O)[O-])ccc1O)C1C2CCCCC21` (stereo unspecified) was run?
The Potency was active: 44.7 µM.

How did the Potency turn out when `Cn1ccnc1C1CCCCN1Cc1nc(-c2ccc(Cl)cc2)no1` (stereo unspecified) was run?
Its Potency is inconclusive: 56.2 µM [inhibitor, partial curve, poor fit].

For `S=c1[nH]c(-c2ccccc2)cn1/N=C/c1cccc2ccccc12`, which Potency is on record?
Its Potency is inconclusive: 7.94 µM [inhibitor, full curve].

With `COc1cc(/C=N/NC(N)=O)cc([N+](=O)[O-])c1O` as the compound, how does the Potency read?
The Potency was inconclusive: 79.4 µM [inhibitor, single point].

How did the Potency turn out when `Cc1oc(-c2ccccc2F)nc1Cn1c(SCc2cccc(Cl)c2)nc2ccncc21` was run?
Its Potency is inconclusive: 20 µM [inhibitor, full curve].

How did the Potency turn out when `Cc1cc(NC(=O)CN2CC3CC(C2)c2cccc(=O)n2C3)nc2c1c(=O)oc1ccccc12` (stereo unspecified) was run?
The Potency was inconclusive: 79.4 µM [inhibitor, single point].

How did the Potency turn out when `COC(=O)c1ccccc1NC(=O)C1CCCN(C(=O)c2cnn(-c3ccc(F)cc3)c2-n2cccc2)C1` (stereo unspecified) was run?
The Potency was inconclusive: 79.4 µM [inhibitor, single point].

Which Potency does the source give for `CCc1nn(CC(=O)NCC(C)c2ccccc2)c(=O)c2cc3c(OC)cccc3n12` (stereo unspecified) here?
The Potency was “inactive”.

How did the Potency turn out when `CC1CCC(C(C)C)C(OC(=O)CSc2nnc(N)s2)C1` (stereo unspecified) was run?
The Potency was inconclusive: 89.1 µM [inhibitor, single point].

Which Potency does the source give for `O=C(NCc1ccccc1)N1CCN(c2ccc(Cl)c(Cl)c2)CC1` here?
The Potency was “inactive”.

How did the Potency turn out when `O=C(COc1ccc(F)cc1)NCc1ccc2c(c1)CCN2C(=O)c1ccc(F)cc1` was run?
Its Potency is “inactive”.

With `Clc1ccc(Cl)c(OCCCCNCc2ccccc2)c1` as the compound, how does the Potency read?
The Potency was inconclusive: 79.4 µM [inhibitor, partial curve].

Which Potency does the source give for `O=C(/C=C/c1ccc(O)c(O)c1)OC(Cc1ccc(O)c(O)c1)C(=O)O` (stereo unspecified) here?
Its Potency is active: 39.8 µM.

How did the Potency turn out when `Cc1ccc(S(=O)(=O)N(C)CC(=O)Nc2cc(C)ccn2)cc1` was run?
Its Potency is “inactive”.

Which Potency does the source give for `COC(=O)c1c(-c2ccccc2)csc1N` here?
Its Potency is inconclusive: 89.1 µM [inhibitor, single point].

For `Oc1c(C(c2cccc(Cl)c2)N2CCOCC2)sc2nc(-c3ccco3)nn12` (stereo unspecified), which Potency is on record?
The Potency was “inactive”.

Which Potency does the source give for `O=C(CCC(=O)NC12CC3CC(CC(C3)C1)C2)NC1CCCCC1` here?
Its Potency is “inactive”.

With `O=C1Nc2ccc(Br)cc2/C1=C/C(=O)c1ccc2c(c1)OCO2` as the compound, how does the Potency read?
Its Potency is inconclusive: 12.6 µM [inhibitor, partial curve].

`COc1ccc(C(=O)/C=C/c2cn(CC(O)CN3CCOCC3)c3ccccc23)cc1` (stereo unspecified) was tested. Which Potency did it give?
Its Potency is inconclusive: 89.1 µM [inhibitor, single point].

For `N#Cc1c(N2CCCCC2)nc(N2CCCCC2)c2c1CCN(Cc1ccccc1)C2`, which Potency is on record?
The Potency was inconclusive: 89.1 µM [inhibitor, single point].

Which Potency does the source give for `CCC1(c2ccccc2)NC(=O)N(CC(=O)NCc2ccc(C)cc2)C1=O` (stereo unspecified) here?
Its Potency is inconclusive: 1 µM [inhibitor, full curve, poor fit].

With `CCOCCCNC(=O)c1ccc(-n2c(-c3ccccc3)cc3c2CCCCC3)cc1` as the compound, how does the Potency read?
The Potency was inconclusive: 89.1 µM [inhibitor, single point].

How did the Potency turn out when `CCN(CC)c1ccc(NC(=O)COC(=O)Cc2ccsc2)cc1` was run?
The Potency was active: 44.7 µM.

How did the Potency turn out when `Cc1ccc(-c2nn(-c3ccccc3)cc2/C=C/C(=O)O)o1` was run?
The Potency was inconclusive: 79.4 µM [inhibitor, single point].

With `CC1CCCN(CCOc2ccc(Br)cc2)C1` (stereo unspecified) as the compound, how does the Potency read?
Its Potency is inconclusive: 89.1 µM [inhibitor, single point].

How did the Potency turn out when `CCOC(=O)c1ccc(N=c2sc(C(=O)OC)cc(=O)n2-c2ccc(C(=O)OCC)cc2)cc1` was run?
Its Potency is inconclusive: 7.94 µM [inhibitor, full curve, poor fit].

How did the Potency turn out when `O=c1c(Cc2c(F)cccc2Cl)c(O)ccn1CCCn1ccnc1` was run?
The Potency was inconclusive: 79.4 µM [inhibitor, single point].

With `Cc1cc2c(n1-c1ccc(Cl)cc1)CC(C)(C)CC2=O` as the compound, how does the Potency read?
The Potency was inconclusive: 44.7 µM [inhibitor, partial curve].

`COc1ccccc1C1C(C(=O)c2ccc(C)o2)=C(O)C(=O)N1c1cc(C)on1` (stereo unspecified) was tested. Which Potency did it give?
Its Potency is inconclusive: 56.2 µM [inhibitor, partial curve].

With `CS(=O)(=O)N(Cc1ccc(Cl)cc1)c1ccc(C(=O)N2CCN(c3ccccc3)CC2)cc1` as the compound, how does the Potency read?
The Potency was inconclusive: 56.2 µM [inhibitor, single point].

With `CCc1nnc(NC(=O)CSc2ncc(-c3ccccc3)[nH]2)s1` as the compound, how does the Potency read?
Its Potency is inconclusive: 89.1 µM [inhibitor, single point].

With `O=C(Cn1nc(-c2ccccc2)c2ccccc2c1=O)NCC1CCCO1` (stereo unspecified) as the compound, how does the Potency read?
The Potency was “inactive”.

For `C/C(CCC1CC(C)(C)OC1=O)=N\NC(N)=S` (stereo unspecified), which Potency is on record?
Its Potency is inconclusive: 35.5 µM [inhibitor, partial curve].

Which Potency does the source give for `Cc1ccc(SCc2[nH]nc3c2C(c2cccnc2)C(C#N)=C(N)O3)cc1` (stereo unspecified) here?
The Potency was inconclusive: 100 µM [inhibitor, single point].

`Cc1nc2ccc([N+](=O)[O-])cc2c(=O)n1Cc1ccccc1Br` was tested. Which Potency did it give?
The Potency was inconclusive: 89.1 µM [inhibitor, single point].

How did the Potency turn out when `O=C(Cc1cnn(-c2ccccc2)c1)c1ccc(O)c(O)c1O` was run?
Its Potency is inconclusive: 44.7 µM [inhibitor, partial curve].

With `Cc1c(C2CC(=O)N(c3ccccc3)C2=O)[nH]n(-c2ccccc2)c1=O` (stereo unspecified) as the compound, how does the Potency read?
Its Potency is inconclusive: 50.1 µM [inhibitor, partial curve].

How did the Potency turn out when `CCCCCn1c(=O)[nH]c2cc(C(=O)NCc3ccccc3)ccc2c1=O` was run?
The Potency was “inactive”.

With `CC(C)(C)C1CCC(=NNC(=O)C(=O)NCc2cccnc2)CC1` (stereo unspecified) as the compound, how does the Potency read?
Its Potency is inconclusive: 89.1 µM [inhibitor, single point].

For `Cc1cc(=O)oc2cc(OCC(=O)Nc3ccc(O)c(C(=O)O)c3)ccc12`, which Potency is on record?
The Potency was inconclusive: 79.4 µM [inhibitor, single point].

Which Potency does the source give for `Oc1ccc(NCc2ccc(OCc3ccccc3)cc2)cc1` here?
Its Potency is active: 39.8 µM.

`CCOc1ccc(OCCC(=O)OCC(=O)Nc2cc(S(=O)(=O)N3CCOCC3)ccc2C)cc1` was tested. Which Potency did it give?
Its Potency is inconclusive: 79.4 µM [inhibitor, partial curve].

Which Potency does the source give for `Cc1[nH]c2ccc(-c3n[nH]c(=S)n3-c3ccc(Br)cc3)cc2c1C` here?
The Potency was inconclusive: 89.1 µM [inhibitor, single point].

For `Cc1ccc2cc(CCl)c(Cl)nc2c1`, which Potency is on record?
The Potency was inconclusive: 89.1 µM [inhibitor, single point].

Which Potency does the source give for `COc1ccc(N2CCN(C(=O)c3cc4c(-c5cccc(OC)c5)nn(C)c4s3)CC2)cc1` here?
The Potency was active: 25.1 µM.

`CCCN(CCC)S(=O)(=O)c1ccc(C(=O)Nc2nnc(CSC)o2)cc1` was tested. Which Potency did it give?
Its Potency is inconclusive: 89.1 µM [inhibitor, single point].

With `CCCCNC(=S)N/N=C/c1cccc(OCC)c1O` as the compound, how does the Potency read?
Its Potency is “inactive”.

Which Potency does the source give for `CCc1ccc(C(=O)c2cn(CC(=O)Nc3cc(F)ccc3F)c3nc(C)ccc3c2=O)cc1` here?
The Potency was “inactive”.

`COc1cc2c(cc1OC)C(c1cccc([N+](=O)[O-])c1)N(C(=O)c1ccc(F)cc1)CC2` (stereo unspecified) was tested. Which Potency did it give?
The Potency was inconclusive: 50.1 µM [inhibitor, partial curve].

For `COc1ccccc1/C=N/N1C(=O)C(CC(=O)Nc2ccc([N+](=O)[O-])cc2OC)SC1=Nc1cccc(C)c1C` (stereo unspecified), which Potency is on record?
Its Potency is inconclusive: 79.4 µM [inhibitor, single point].

How did the Potency turn out when `COc1ccc(N2CCN(c3ccc4nnc(CCC(=O)Nc5ccc(C)cc5)n4n3)CC2)cc1` was run?
The Potency was active: 44.7 µM.

`COc1ccccc1NC(=O)CN(Cc1ccco1)C(=O)c1cc2ccccc2o1` was tested. Which Potency did it give?
Its Potency is inconclusive: 44.7 µM [inhibitor, partial curve].

How did the Potency turn out when `C=CCN1c2ccccc2[C@]23C[C@@H](C(=O)OC)N(C(=O)C4CCC4)C2=NC(C(=O)OC)=C(C(=O)OC)[C@H]13` was run?
Its Potency is inconclusive: 56.2 µM [inhibitor, partial curve].

For `O=C1/C(=C\c2cc(Cl)c(O)c(Cl)c2)SC(=S)N1Cc1ccccc1`, which Potency is on record?
The Potency was active: 50.1 µM.

How did the Potency turn out when `O=C(CN1C2CCC1CC(NC(=O)Nc1ccccc1)C2)NCc1ccco1` (stereo unspecified) was run?
The Potency was inconclusive: 89.1 µM [inhibitor, single point].

`C/C(=N\Nc1nncc2ccccc12)c1ccc(O)cc1` was tested. Which Potency did it give?
Its Potency is inconclusive: 89.1 µM [inhibitor, single point].

How did the Potency turn out when `CCC(NC(=S)NCc1ccc(F)cc1)c1ccc(C)cc1` (stereo unspecified) was run?
Its Potency is inconclusive: 2.82 µM [inhibitor, full curve, poor fit].

How did the Potency turn out when `CC(C)C[C@H](NC(=O)N1c2ccccc2NC(=O)[C@@H]1C(C)C)C(=O)N1CCC[C@@H]1C(=O)O` was run?
The Potency was inconclusive: 89.1 µM [inhibitor, single point].

For `Cc1cc(CNC(=O)CC2C(=O)NCCN2Cc2ccc(-c3ccccc3)cc2)nn1C` (stereo unspecified), which Potency is on record?
The Potency was “inactive”.

For `Cc1occc1-c1nnc(SCC(=O)Nc2nccs2)n1Cc1ccco1`, which Potency is on record?
Its Potency is inconclusive: 89.1 µM [inhibitor, single point].

Which Potency does the source give for `O=C(Cn1cnc2c(nc3n2CCCCC3)c1=O)Nc1ccc(F)c(Cl)c1` here?
The Potency was “inactive”.

How did the Potency turn out when `CCOC(=O)C1CCCN(C(=O)CN2C(=O)COc3ccc(C(C)(C)C)cc32)C1` (stereo unspecified) was run?
Its Potency is “inactive”.

Which Potency does the source give for `O=C(O)CC1S/C(=N/N=C/c2ccc(-c3ccc(Cl)cc3[N+](=O)[O-])o2)NC1=O` (stereo unspecified) here?
Its Potency is inconclusive: 44.7 µM [inhibitor, partial curve].

`O=C(CSc1nnc(-c2ccccc2)c(-c2ccccc2)n1)Nc1ccc(Br)cn1` was tested. Which Potency did it give?
Its Potency is inconclusive: 79.4 µM [inhibitor, single point].
